# Publication PMC4336329 (PLoS ONE, 2015)
# Hit rate of the full screen: of about 310,000 compounds, about 2,200 (0.71%) showed an effect of 50% or more. Effects have a minus sign here. The list shows a part of the results.
# Target: human ether-à-go-go-related gene (hERG) potassium channel (human, UniProt Q12809)
# Test: primary screen, population patch clamp on CHO cells stably expressing hERG
# Sequence of human ether-à-go-go-related gene (hERG) potassium channel (Q12809 whole entry, looked up): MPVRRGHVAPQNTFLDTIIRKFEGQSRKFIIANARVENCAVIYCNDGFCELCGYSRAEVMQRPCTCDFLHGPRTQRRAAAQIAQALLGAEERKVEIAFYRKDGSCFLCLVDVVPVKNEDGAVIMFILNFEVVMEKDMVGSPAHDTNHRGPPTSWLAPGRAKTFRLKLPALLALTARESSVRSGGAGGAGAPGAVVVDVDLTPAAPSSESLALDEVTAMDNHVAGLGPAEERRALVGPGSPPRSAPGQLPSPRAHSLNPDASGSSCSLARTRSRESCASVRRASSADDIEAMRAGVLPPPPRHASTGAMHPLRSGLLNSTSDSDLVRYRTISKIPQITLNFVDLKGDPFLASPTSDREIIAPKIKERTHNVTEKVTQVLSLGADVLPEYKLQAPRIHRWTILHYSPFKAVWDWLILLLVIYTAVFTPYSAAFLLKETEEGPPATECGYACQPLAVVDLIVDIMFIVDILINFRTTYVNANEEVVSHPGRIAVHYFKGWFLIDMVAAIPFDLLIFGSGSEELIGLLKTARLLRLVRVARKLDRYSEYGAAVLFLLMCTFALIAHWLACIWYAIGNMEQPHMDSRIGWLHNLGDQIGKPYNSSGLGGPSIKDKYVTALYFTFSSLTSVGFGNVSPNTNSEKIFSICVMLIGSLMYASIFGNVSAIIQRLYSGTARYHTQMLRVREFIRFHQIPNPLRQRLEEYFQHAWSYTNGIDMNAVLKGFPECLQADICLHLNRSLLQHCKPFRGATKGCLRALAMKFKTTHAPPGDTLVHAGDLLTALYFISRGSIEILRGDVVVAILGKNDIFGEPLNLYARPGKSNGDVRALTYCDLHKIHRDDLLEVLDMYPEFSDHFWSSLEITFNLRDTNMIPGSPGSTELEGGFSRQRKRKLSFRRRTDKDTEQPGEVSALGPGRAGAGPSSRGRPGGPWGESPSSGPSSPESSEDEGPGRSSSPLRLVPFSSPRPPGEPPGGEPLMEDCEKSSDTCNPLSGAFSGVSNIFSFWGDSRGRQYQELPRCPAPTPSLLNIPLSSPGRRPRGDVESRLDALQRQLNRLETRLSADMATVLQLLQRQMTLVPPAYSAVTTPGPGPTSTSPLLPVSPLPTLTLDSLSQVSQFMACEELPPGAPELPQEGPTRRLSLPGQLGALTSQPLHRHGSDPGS
row,SMILES,"hERG current change (%, negative = inhibition) at 1uM"
1,CCOC(=O)N1CCC(NC(=O)C2CCCN(S(=O)(=O)c3cccc4nsnc34)C2)CC1 (stereo not drawn),3.51%
2,CCCSc1nc(NCc2ccco2)c2c3c(sc2n1)COC(C)(CC)C3 (stereo not drawn),21.5%
3,COC1CCCCC1Nc1cc(C)cc(C)c1 (stereo not drawn),8.22%
4,CCn1c(C)nc2cc(C(=O)NNC(=S)Nc3ccccc3OC)ccc21,-4.31%
5,Cc1cccc(OP(=O)(Oc2ccccc2)OC(c2ccccc2)C(F)(F)F)c1 (stereo not drawn),6.5%
6,CC(=O)Nc1ccc(N2CC(C)(C)C2=O)cc1,1.36%
7,CC(=O)c1sc(Nc2cccc3ccccc23)nc1C.Cl,11.5%
8,Cc1cc(=O)[nH]c2c(C)cc(S(=O)(=O)N3CCCCC3)cc12,7.68%
9,CCc1nn(CC(=O)NCCCN2CCN(CC)CC2)c(=O)c2cc3occc3n12,16.3%
10,O=C(Nc1ccnn1C1CCN(Cc2ccc(C#CCCO)cc2)CC1)c1cccc(F)c1,-37.5%
11,COc1ccccc1NC(=O)Cn1c(CN2CCCCC2)nc2ccccc2c1=O,6.37%
12,CC(=O)c1[nH]c(C)c(C(C)=O)c1C,10.4%
13,Cc1ccc(C)c(CSC2=NCCN2S(=O)(=O)c2ccccc2)c1,7.31%
14,COc1ccc(NC2=NCC(=O)N2c2ccccc2F)c(OC)c1.Cl,6.07%
15,CCOCCCNC(=O)Cc1cc(=O)[nH]c(=O)[nH]1,4.28%
16,COc1cccc(C2NC(=O)c3ccccc3O2)c1OC (stereo not drawn),14.2%
17,S=C(Nc1cccc(Cl)c1)N1CCN(Cc2ccccc2)CC1,3.98%
18,CCC(C(=O)Nc1cccc(C(=O)O)c1)c1ccccc1 (stereo not drawn),7.48%
19,C=CCN(C(=O)Cc1cccs1)c1nc(-c2ccc(S(C)(=O)=O)cc2)cs1,15.5%
20,Cc1ccc(N2C(=O)NC(=O)/C(=C\C=C\c3ccco3)C2=O)cc1C,2.07%
21,CC(Oc1ccc(Cl)cc1Cl)C(=O)NCc1ccncc1 (stereo not drawn),2.07%
22,COc1ccccc1OCCNC(=O)c1ccccc1OCc1c(C)noc1C,15.3%
23,C=CCc1c(C)nc2c(-c3ccccc3)cnn2c1N1CCOCC1,14.1%

row,SMILES,"hERG current change (%, negative = inhibition) at 1uM"
1,CCc1cccc2c(C(=S)N3CCCC3)c[nH]c12,7.51%
2,O=c1c2ccccc2nc(/C=C/c2ccc([N+](=O)[O-])cc2)n1CCCO,-31%
3,C[C@H]1CN=C(Nc2ccccc2)N1CCC1CCCC1,-0.228%
4,Cc1cc2[nH]c(=O)c(=O)[nH]c2cc1S(=O)(=O)N1CCN(c2ccccc2)CC1,7.61%
5,Cc1[nH]c2ccccc2c1-c1csc(NC(=O)CN2CCOCC2)n1,14.7%
6,Cc1csc(NC(=O)Cc2c(F)cccc2Cl)n1,10.1%
7,CCc1nn2c(=O)cc(COc3cccc(NC(=O)c4ccco4)c3)nc2s1,4.74%
8,Cc1ccc(CNS(=O)(=O)CCNC(=O)c2ccc3c(c2)OCO3)cc1,3.72%
9,COCCCNC(=S)NCCCNc1nc2cc3c(cc2cc1C#N)OCO3,10.2%
10,O=C1CC(N2CCN(c3ccccc3Cl)CC2)C(=O)N1c1ccccc1 (stereo not drawn),5.01%
11,CCC(C)(C(=O)NC1CCCC1)N(Cc1cccs1)C(=O)c1ccc2c(c1)OCO2 (stereo not drawn),2.22%
12,CCN1CCN(C(=O)C2(NC(=O)Nc3ccccc3Cl)CCCCC2)CC1,0.0186%
13,COc1ccc(CN(CCCN2CCOCC2)C(=O)Nc2ccccc2)cc1OC,3.31%
14,COc1ccc(C(=O)Nc2nc(C)c(C(=O)N(C)C)s2)cc1OC,13%
15,CC(C)(C)c1ccc(C(=O)NC(=S)N2CCOCC2)cc1,0.072%
16,COc1cc(/C=N/NC(=O)CCNC(=O)c2ccccc2Cl)ccc1O,10.9%
17,CCOc1ccc(C(=O)N(CC(=O)Nc2cccc(C)c2C)CC2CCCO2)cc1OC (stereo not drawn),2.66%
18,Cc1cc([N+](=O)[O-])nn1CC(=O)N/N=C/c1ccccc1O,11.8%
19,O=Cc1ccc(Sc2nnc(-c3ccccc3)o2)c([N+](=O)[O-])c1,11.2%
20,CCOC(=O)c1oc2ccccc2c1N,9.68%
21,Cc1cc(C)c2c(n1)nn1c(C3CC3)cc(C(F)(F)F)nc21,5.43%
22,COc1ccc(C(=O)N2CCN(C(=O)c3ccco3)CC2)cc1,7.36%
